# From the BET-seq Pho4 binding data (Le et al. 2018)
# Some of the results follow. Values were computed here from the reads of four pooled replicates and scatter widely.
# Target: T1, Pho4 (S. cerevisiae) (UniProt P07270)
# T1 sequence: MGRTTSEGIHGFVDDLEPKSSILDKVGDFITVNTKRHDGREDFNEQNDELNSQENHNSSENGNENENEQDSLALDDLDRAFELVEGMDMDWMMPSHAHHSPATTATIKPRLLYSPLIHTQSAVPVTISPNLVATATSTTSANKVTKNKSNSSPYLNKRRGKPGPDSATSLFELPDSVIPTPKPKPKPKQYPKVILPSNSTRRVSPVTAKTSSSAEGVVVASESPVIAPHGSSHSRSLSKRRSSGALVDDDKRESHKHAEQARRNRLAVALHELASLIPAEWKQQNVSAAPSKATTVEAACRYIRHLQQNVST
# Experiment: relative binding free energy (BET-seq); higher = weaker binding
# Details: reference: library average
row,Sequence,relative binding free energy [kcal/mol]
1,CGTGGCACGTGAAATG,0.21
2,ATGGTCACGTGCTATT,0.05
3,TGTTTCACGTGTAGAG,0.27
4,GTCAGCACGTGGCGGG,-0.14
5,AGGGGCACGTGTCCAG,-0.14
6,TCCTGCACGTGTGGTG,0.07
7,TTGTACACGTGTCTTG,0
8,ATATTCACGTGAATAG,0.33
9,ATGGACACGTGATAAT,0.29
10,TATTACACGTGTAGTG,0.06
11,TAAGGCACGTGTCAGT,-0.08
12,GTTGCCACGTGGTCTT,-0.02
13,GGTTGCACGTGTAGGG,0.05
14,TGGAACACGTGTGGTG,0.03
15,TGCCACACGTGTGTGG,0.08
16,TGGGCCACGTGCTTAG,-0.08
17,TCGTGCACGTGTGAGG,0.07
18,GTTGGCACGTGTGGTG,0.03
19,TGGCTCACGTGGGCGT,0.21
20,TTTGTCACGTGAGAGT,0.41
21,TTTCGCACGTGAGTCT,0.21
22,GTTTTCACGTGTCTTA,0.39
23,AATGGCACGTGAATTT,0.15

row,Sequence,relative binding free energy [kcal/mol]
1,TCAGTCACGTGGGTTC,0
2,GGGTGCACGTGGTTCG,-0.07
3,ATGCACACGTGGGTTG,-0.16
4,GTACGCACGTGCTGGT,-0.05
5,ATTCTCACGTGAGGGG,0.37
6,GGATTCACGTGGAGTC,0.4
7,TGATTCACGTGACGTT,0.27
8,AGGGGCACGTGGCTGG,-0.21
9,CGTCGCACGTGGGGGC,-0.26
10,TATATCACGTGCGGTA,0.16
11,TTAAGCACGTGTGGCC,0.02
12,CTTAGCACGTGTGATT,0.16
13,AGGGTCACGTGGCATA,0.02
14,TAACACACGTGTGGTT,0.05
15,TTCGGCACGTGTTCAT,-0.05
16,AATTGCACGTGGTATG,-0.1
17,GGTTTCACGTGGATCA,0.29
18,GGTGACACGTGGACGG,0.08
19,TAAGTCACGTGGACGG,0.12
20,TAGGACACGTGTGTCT,0.14
21,GTGAACACGTGTGGGA,0.11
22,AGTCGCACGTGGAGCG,-0.03
23,GATGTCACGTGGGGTT,0.09

row,Sequence,relative binding free energy [kcal/mol]
1,AGGGGCACGTGCATCG,-0.24
2,TGTGTCACGTGTAGAA,0.11
3,ATGTCCACGTGGATTT,0.15
4,CTCTTCACGTGTTGGG,0.24
5,TTAGGCACGTGGTTAT,-0.23
6,GACGGCACGTGAGGTT,0.34
7,TATTACACGTGTGTAG,0.01
8,TTTGCCACGTGGGGTC,-0.13
9,CGCGGCACGTGTGGGA,-0.05
10,TCGGGCACGTGGTGAA,-0.17
11,AACTTCACGTGTGAGT,0.3
12,GGAAGCACGTGTTTAT,-0.07
13,CGTGCCACGTGGAGGG,0
14,GGGTGCACGTGATTTG,0.27
15,GGGCGCACGTGTGCGG,-0.17
16,CGAGTCACGTGTGGGC,0.12
17,TATAACACGTGGTTCA,-0.05
18,CTATTCACGTGGTGGC,0.23
19,TGTTGCACGTGGGAGA,-0.07
20,TGTCGCACGTGAGGAT,0.17
21,GTGAACACGTGTGTCG,0.1
22,TTGGGCACGTGCTAGT,-0.25
23,GGAGTCACGTGAAGCT,0.39

row,Sequence,relative binding free energy [kcal/mol]
1,AGAAACACGTGAGTGT,0.15
2,ATCGGCACGTGGATTT,0.03
3,TCGGTCACGTGTGGGT,0.23
4,GCGCGCACGTGCTGGG,-0.09
5,TAATACACGTGTAGGT,0.09
6,TTTGCCACGTGCTGTT,-0.12
7,TTTTGCACGTGTCACG,0.03
8,TAAAACACGTGGTGCT,-0.05
9,CTTGACACGTGTTGTG,0.06
10,GCTTACACGTGTTATT,0.14
11,TGAAACACGTGCGGGT,-0.09
12,GGTAGCACGTGGATGA,0.17
13,GAGGTCACGTGGTCGT,0.13
14,ATATTCACGTGTGCGG,0.23
15,GCGTTCACGTGAAGGA,0.5
16,TGTATCACGTGTTTAC,0.32
17,AAGTACACGTGGATTG,0.13
18,TGTAGCACGTGCGTTT,-0.09
19,AGTTTCACGTGTCGAG,0.26
20,GAGTGCACGTGGGACT,-0.09
21,AAAGTCACGTGTGTGG,0.09
22,ATGGTCACGTGTACTG,0.02
23,CTATTCACGTGTTATA,0.21

row,Sequence,relative binding free energy [kcal/mol]
1,TGTGACACGTGATGAA,0.02
2,TAGTGCACGTGAGGTA,0.2
3,ACTGTCACGTGGGATT,0.01
4,GTAGTCACGTGGGTGC,-0.03
5,TTTATCACGTGAGTGT,0.38
6,AGGTGCACGTGAAGTG,0.25
7,AGGGGCACGTGGGTCT,-0.25
8,TCTGTCACGTGTAAAT,0.23
9,CGTAACACGTGGTGGG,-0.2
10,GGCTGCACGTGTGTAA,0.04
11,TCGGTCACGTGGTATT,0.07
12,TGATCCACGTGGGGGT,-0.07
13,GGGTTCACGTGAAGTT,0.45
14,TGGGCCACGTGGTGTT,-0.15
15,TGGTGCACGTGTCTCG,-0.07
16,GTAGTCACGTGTGTTA,0.12
17,GTGGCCACGTGGGGTG,-0.22
18,TTTGGCACGTGCTAAT,-0.2
19,GGGTTCACGTGTGGTG,0.36
20,GTGATCACGTGGGACG,0.08
21,GCGAGCACGTGTGGGT,0
22,GTGAACACGTGGGAGG,-0.11
23,GTTGACACGTGTGGAT,0.06
